Source: PubChem BioAssay AID1476 (National Center for Advancing Translational Sciences (NCATS), 2009)
Screen size: about 200,000 compounds; about 4,500 (2.2%) were called active. Inconclusive means that the source gave no clear call. Such entries were picked first, then a sample of the others. Calls come from the whole dose curve; as a rule, active = well fitted inhibition curve with a large enough effect; inconclusive = small, poorly fitted or top-dose-only effect, or effect the other way; inactive = flat fitted curve, though single readings scatter. Where the call is inconclusive, the potency comes from a doubtful curve fit.

Each molecule was assayed against Cruzipain (Trypanosoma cruzi) (UniProt P25779) (assay: qHTS Assay for Promiscuous and Specific Inhibitors of Cruzain (without detergent)). Settings: purified cruzain, Z-FR-AMC fluorescence, no detergent.
Method in brief: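 Detergent-free condition (0.00005% Triton X-100) in acetate buffer pH 5.5 with DTT. 1.5 nM enzyme and compound were pre-mixed 15 min, then 2 uM Z-FR-AMC substrate added; reaction progress from fluorescence change between first and third reads (60 s).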
Note: nearly all actives have a fitted effect of over 40% in size.
Potency is the fitted concentration of half-maximal effect; tags give direction and shape of the fitted curve.
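Throughout, for max response, negative = inhibition: plate controls were enzyme without inhibitor for no effect and buffer without enzyme for full effect.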

UniProt P25779, sequence (P25779 whole entry, looked up): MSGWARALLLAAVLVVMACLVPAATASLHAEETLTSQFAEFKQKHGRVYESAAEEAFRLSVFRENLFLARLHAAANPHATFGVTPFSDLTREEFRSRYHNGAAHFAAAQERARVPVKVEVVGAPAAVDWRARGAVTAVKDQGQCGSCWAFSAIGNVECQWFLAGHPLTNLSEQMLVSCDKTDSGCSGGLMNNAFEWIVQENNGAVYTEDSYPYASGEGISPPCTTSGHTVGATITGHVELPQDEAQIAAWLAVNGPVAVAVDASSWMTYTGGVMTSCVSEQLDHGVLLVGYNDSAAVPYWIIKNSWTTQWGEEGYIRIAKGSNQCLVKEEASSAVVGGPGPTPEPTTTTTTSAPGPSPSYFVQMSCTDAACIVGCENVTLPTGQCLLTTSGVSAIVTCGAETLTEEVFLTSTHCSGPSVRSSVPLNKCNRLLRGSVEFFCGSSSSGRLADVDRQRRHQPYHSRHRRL

SMILES | Potency | max response, negative = inhibition
Cc1ccc2c(COn3nnc4ccc(S(=O)(=O)N(C)C)cc43)cc(=O)oc2c1C | inconclusive: 25.1 µM [activator, single point] | –
Clc1ccc(OCc2nnc(SCc3nnc(-c4ccccc4)o3)o2)c(Cl)c1 | inconclusive: 31.6 µM [activator, single point] | –
CCOc1ccc(NC(=O)NCC2CCN(c3ccc(OC)cc3)C2)cc1 (stereo unspecified) | inconclusive: 39.8 µM [inhibitor, single point] | –
CCn1nnc2cc(C(=O)Nc3cccc(C)c3C)ccc21 | – | inactive: -12.8%
Cc1ccc2oc(-c3ccc(C)c(NC(=S)NC(=O)c4cccs4)c3)nc2c1 | inconclusive: 31.6 µM [inhibitor, single point] | –
Cc1ccc(C(=O)NCC(=O)OCC(=O)c2ccc(C)c([N+](=O)[O-])c2)cc1 | active: 12.6 µM | –
CC(C)c1ccc(/C=C2\CC/C(=C\C=N\N(C)C)C2=O)cc1 | inconclusive: 39.8 µM [activator, single point] | –
COC(=O)c1ccc(CSc2nnc(CS(=O)Cc3ccc(Br)cc3)n2-c2ccccc2)cc1 (stereo unspecified) | inconclusive: 20 µM [activator, single point] | –
CC(=O)c1nn(-c2ccc(Br)cc2)cc1C(=O)c1ccccc1 | inconclusive: 39.8 µM [inhibitor, single point] | –
Cc1ccc(C(=O)CSc2nnc3c4ccccc4nc(Cc4ccccc4)n23)cc1 | inconclusive: 31.6 µM [inhibitor, single point] | –
COc1ccc2c(CC(=O)Nc3ccc(OC)c(NS(=O)(=O)c4ccc(F)cc4)c3)coc2c1 | inconclusive: 20 µM [inhibitor, partial curve, poor fit] | –
Cc1oc2c(cc(NS(=O)(=O)c3ccc(F)cc3)c3ccccc32)c1C(=O)OCc1ccccc1 | inconclusive: 7.94 µM [inhibitor, single point] | –
CC(=O)N1CCN(c2ccc(OC[C@H]3CO[C@](Cn4ccnc4)(c4ccc(Cl)cc4Cl)O3)cc2)CC1 | inconclusive: 39.8 µM [activator, single point] | inconclusive: 32.1% [activator]
COc1ccc(C(=O)NNC(=S)NC(=O)c2cc(-c3ccccc3)nc3ccccc23)cc1 | inconclusive: 31.6 µM [inhibitor, single point] | –
O=C(NC(=S)Nc1ccc(S(=O)(=O)N2CCCCCC2)cc1)c1cccs1 | inconclusive: 20 µM [inhibitor, partial curve] | –
Cc1cc(/C=N/NC(=O)CC2(C)OCCO2)c(C)n1-c1ccc(Cl)c(Cl)c1 | inconclusive: 39.8 µM [activator, single point] | –
CC(C)C[C@@H](CC(=O)N[C@@H](CCCN)CC(=O)N[C@@H]1CCCC[C@H]1C(=O)N[C@H](CC(=O)N[C@@H](CCC(=O)O)CC(=O)O)CC(C)C)NC(=O)[C@@H]1CCCC[C@H]1N | inconclusive: 25.1 µM [activator, single point] | –
Cc1[nH]c2ccccc2c1C(=O)COC(=O)Cn1c(C)nc2ccccc21 | inconclusive: 39.8 µM [activator, single point] | –
Cc1cccc(C)c1NC(=O)CN1C(=O)c2ccccc2Sc2ncccc21 | inconclusive: 31.6 µM [activator, single point] | –
COc1ccc(C(=O)N/C(=C/c2cccc3ccccc23)C(=O)NCCc2c[nH]c3ccccc23)cc1OC | inconclusive: 39.8 µM [inhibitor, single point] | –

SMILES | Potency | max response, negative = inhibition
CCOC(=O)c1ccc(NC(=O)c2c(NCc3cc(OC)ccc3OC)sc3c2CCC3)cc1 | – | inactive: -15.8%
CCn1cc(C(=O)Nc2ccc(C(C)C)cc2)c2cc(OC)c(OC)cc2c1=O | inconclusive: 12.6 µM [activator, partial curve] | –
CCc1cccc(N2C(=O)N(Cc3c(F)cccc3Cl)c3ccccc3S2(=O)=O)c1 | – | inactive: -5.1%
Cc1ccc(-n2nnc3c(=O)n(CC(=O)c4ccccc4)cnc32)cc1 | inconclusive: 39.8 µM [inhibitor, single point] | –
CS(=O)(=O)N1CCC2(CC1)CN(c1ccccc1)C2 | – | inactive: -7.42%
CC(C)C(c1nnnn1C1CCCCC1)N1CCc2ccccc21 (stereo unspecified) | – | inactive: 12.8%
CC(=O)c1cccc(NC(=O)CSc2nc3c(=O)n(C)c(=O)n(C)c3n2C)c1 | inconclusive: 1.58 µM [activator, single point] | –
Nc1ccc2oc(Cc3ccc(Cl)cc3)nc2c1 | inconclusive: 39.8 µM [inhibitor, single point] | –
COc1ccc(C)cc1NC(=O)Cc1c(C(=O)O)c(C)cn1C | – | inactive: -4.69%
Cc1sc2nc(-c3cccs3)nc(N3CCCN(C)CC3)c2c1C | inconclusive: 25.1 µM [inhibitor, single point] | –
Cc1ccc2[nH]c(C)cc(=O)c2c1 | – | inactive: -0.22%
Cc1ccccc1NC1c2ccccc2C(=O)N1Cc1ccco1 (stereo unspecified) | inconclusive: 20 µM [inhibitor, single point] | –
Brc1cccc(/C=N\n2cnnc2)c1 | inconclusive: 25.1 µM [inhibitor, single point] | –
COc1cccc(-c2ccc3c(N)c(C(=O)Nc4ccccc4C)sc3n2)c1 | inconclusive: 39.8 µM [inhibitor, single point] | –
Cc1cc(C)nc(SCc2nnc(SCC(=O)Nc3ccc(Cl)c(C(F)(F)F)c3)o2)n1 | inconclusive: 20 µM [activator, single point] | –
Cc1cc2nc(-c3ccc(SCc4ccccc4C#N)nc3)[nH]c2cc1C | inconclusive: 39.8 µM [inhibitor, single point] | –
COc1cccc(NC(=O)CCN2CCN(CCO)CC2)c1 | – | inactive: 6.66%
Cc1ccccc1OCC(=O)N/N=C/c1ccc2c(c1)OCCO2 | – | inactive: -14.1%
CCS(=O)(=O)N1CCN(c2ccc(C(=O)NC34CC5CC(CC(C5)C3)C4)cc2[N+](=O)[O-])CC1 | inconclusive: 25.1 µM [activator, single point] | –
O=C(NCc1ccco1)c1ccc2c(c1)N(Cc1ccccc1F)C(=O)c1ccccc1S2(=O)=O | – | inactive: -15.8%
